PubChem BioAssay AID1645887 (National Center for Advancing Translational Sciences (NCATS), 2021)
Several values for one entry are separate records, joined by “and”; a condition that tells them apart may be missing. Equal values may be shown once. In all, about 16,000 compounds went through this assay and about 40 (0.2%) were called active. Another 1% or so got no clear call; they are omitted. Calls follow the shape of the dose curve; as a rule, active = well fitted activation curve with a large enough effect; inconclusive = small, poorly fitted or top-dose-only effect, or another doubt; inactive = no such curve, though single readings can be large or run the other way. The list shows a part of the results.

Target: Rap guanine nucleotide exchange factor 4 (Homo sapiens) (UniProt Q8WZA2)
Chain of UniProt Q8WZA2 (Q8WZA2 whole entry, looked up): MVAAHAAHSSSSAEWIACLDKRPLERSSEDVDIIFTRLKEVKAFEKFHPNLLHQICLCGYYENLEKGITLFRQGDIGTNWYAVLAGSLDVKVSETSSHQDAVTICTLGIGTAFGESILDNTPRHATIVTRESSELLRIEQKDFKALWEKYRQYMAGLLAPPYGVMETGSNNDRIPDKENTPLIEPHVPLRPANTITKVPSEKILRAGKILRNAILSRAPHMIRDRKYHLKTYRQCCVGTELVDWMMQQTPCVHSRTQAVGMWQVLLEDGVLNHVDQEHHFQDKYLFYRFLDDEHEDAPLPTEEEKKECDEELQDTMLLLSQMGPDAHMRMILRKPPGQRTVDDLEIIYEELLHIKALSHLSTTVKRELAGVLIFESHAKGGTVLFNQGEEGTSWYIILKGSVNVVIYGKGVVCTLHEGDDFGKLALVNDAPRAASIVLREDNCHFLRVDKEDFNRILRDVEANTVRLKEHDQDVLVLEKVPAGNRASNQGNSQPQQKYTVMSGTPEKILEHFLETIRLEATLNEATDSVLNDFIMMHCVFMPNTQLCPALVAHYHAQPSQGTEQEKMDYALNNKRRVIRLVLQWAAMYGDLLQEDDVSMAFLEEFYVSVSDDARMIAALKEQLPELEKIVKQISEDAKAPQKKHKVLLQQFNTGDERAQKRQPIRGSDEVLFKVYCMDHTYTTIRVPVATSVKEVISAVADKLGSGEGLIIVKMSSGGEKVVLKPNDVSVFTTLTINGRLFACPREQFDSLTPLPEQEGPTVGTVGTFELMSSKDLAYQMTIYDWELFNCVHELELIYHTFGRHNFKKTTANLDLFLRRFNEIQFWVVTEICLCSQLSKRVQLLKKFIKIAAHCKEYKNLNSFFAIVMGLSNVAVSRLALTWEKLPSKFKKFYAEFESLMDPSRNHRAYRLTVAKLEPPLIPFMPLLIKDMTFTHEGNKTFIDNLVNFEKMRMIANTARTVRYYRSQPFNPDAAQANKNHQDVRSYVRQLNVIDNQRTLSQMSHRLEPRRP
Experiment: Validation qHTS for agonist of cAMP-regulated guanine nucleotide exchange factor 4 (EPAC2);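 also: exchange makes BODIPY-GDP fluorescence drop when released from Rap1B; series mostly up to about 150 µM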
Settings: EPAC2 Rap1B BODIPY-GDP exchange, fluorescence; activation: hits give high values
Procedure, shortened: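 Fluorescent exchange assay: 100 nM EPAC2 with 250 nM RAP1B-BODIPY-GDP and 50 uM GDP; compound added, 5 min at room temperature, then read (ex 480/em 540 nm) every 5 min for 30 min. Normalized to 6.5 mM cAMP agonist control.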
% is scaled to controls: 0 for no effect and ±100 for the full control effect.

activation, inactive:
COc1cc(CN2CCOc3ccc(CN4CCC(O)(c5cccnc5)CC4)cc3C2)ccc1F -3.79%
CCN(CC)c1ncnc2c1ncn2[C@@H]1O[C@@H](COP(=O)(O)OP(=O)(O)C(Br)(Br)P(=O)(O)O)[C@H](O)[C@H]1O -8.64%
O=C1CCN(Cc2ccccc2)S(=O)(=O)c2ccc(C(F)(F)F)cc21 -32.7%
COc1ccc(-c2nc3cnc(N4CCOCC4)nc3n(Cc3cccc(OC)c3)c2=O)cc1 9.88%
CN(CCO)C(=O)c1cn(C2CCCN(Cc3ccc4ccccc4c3)C2)nn1 (centres undefined) -4.59%
C[C@H](Cn1cnc2c(N)ncnc21)OCP(=O)(O)O 2.78%
CNC(=O)c1c(I)c(C(=O)NCC(=O)Nc2c(I)c(C(=O)O)c(I)c(C(=O)NCCO)c2I)c(I)c(N(C)C(C)=O)c1I 4.68%
O=S1(=O)CCOC[C@H](c2ccccc2)N1Cc1ccc(Cl)c(Cl)c1 -10.4%
CC(CN1CC(=O)NC(=O)C1)N1CC(=O)NC(=O)C1 (centres undefined) -2.55%
CN1CCN(c2ncc3ncc(=O)n(CCc4ccccc4)c3n2)CC1 2.15%
Cc1ncoc1C(=O)NCc1nc(-c2cccc(NC(=O)c3ccccn3)c2)oc1C -8.16%
O=C(C[C@H]1C(=O)N(CCc2ccccc2)C[C@@H]1Cc1ccccc1)Nc1ccccc1 -38%
COc1c(C(C)C)oc2cc3oc(=O)ccc3cc12 -24.8%
Cc1noc(C)c1-c1nccc(-n2ccnc2)n1 -22.3%
c1ccc2c(c1)sc[n+]2CCC1CCCCC1 -22.5%
COc1cc(C(=O)OC2CC[C@]3(C)C4CCC5[C@]6(O)CC(O)[C@]7(O)C(CN8CC(C)CCC8[C@]7(C)O)[C@]6(O)C[C@@]53O[C@]24O)cc(OC)c1OC (some centres undefined) -9.6%
Cc1cc(O)c(C(C)C)cc1Cl -11%
COc1cc(N(C)C)c(OC)cc1C=O -9.96%
CC(=O)Oc1ccccc1C(=O)Oc1ccccc1C(=O)O -0.334%
C[C@H](O)CN(C)C -9.35%
O=C(c1cccc(F)c1)N1CCC2(CC1)CN(C(c1ccccc1)c1ccccc1)C2 -0.221%
N[C@H](C(=O)O)[C@@H]1CC(Cl)=NO1 26.5%
Cc1cnc(CNc2nc(-c3ccccc3Cl)nc3ccccc23)cn1 -36%
O=C(O)c1ccncc1 -7.57%
COc1ccccc1CCC(=O)N1CCOc2c(cc(-c3cnc4ccccc4c3)cc2OC)C1 -2.28%
O=[N+]([O-])O[C@@H]1CO[C@H]2[C@@H]1OC[C@@H]2O 3.66%
O=C(NCCCN1CCCCCC1)C(c1ccccc1)C1CCCCC1 (centres undefined) 9.09%
CC1CC2C(C(O)C[C@]3(C)C2CC[C@]3(O)C(=O)CO)[C@]2(C)C=CC(=O)C=C12 (some centres undefined) 3.25%
CCCCC/C=C\C/C=C\CCCCCCCCCC(=O)O 7.37%
O=C1C=CC2=C3c4cc(O)c(O)cc4C[C@@]3(O)COC2=C1 -5.9%
NC(Cc1ccccc1)C(=O)O (centres undefined) -10.8%
CNC(=O)Oc1ccc2c(c1)[C@@]1(C)CCN(C)C1N2C (some centres undefined) -0.673% and -1.46% and 2.98%
COc1ccc2[nH]c(-c3ccccc3)c(CCNC(C)=O)c2c1 -31% and 10%
COc1ccccc1C1CN(CCNC(=O)c2cnsn2)Cc2ccccc2O1 (centres undefined) 9.77%
CCOC(=O)C1=CC2(CC)CCCN3CCc4c(n1c1ccccc41)C32 (centres undefined) -20.1%
Cc1cc(-c2ccnc(-n3ncc(C(=O)N(C)Cc4nccs4)c3C)n2)c(C)s1 -8.42%
CC(C)(C)c1ccc(C(=O)CCCN2CCC(OC(c3ccccc3)c3ccccc3)CC2)cc1 -27.8% and -37.5%
COCC(=O)N1CCC2(CCCN(C(=O)Nc3cccc(F)c3)C2)CC1 -5.5%
CCCCCC(O)c1cccc(OCc2ccc3ccccc3n2)c1 (centres undefined) 2.21% and -54.7%
C/C1=C/CC(C)(C)/C=C/C/C(C)=C/CC1 -19.6%
COc1cc(-c2coc3cc(O[C@H]4OC(CO)C(O)C(O)C4O)c(OC)c(O)c3c2=O)cc(O)c1OC (some centres undefined) -1.56%
CC1(C)S[C@@H]2[C@H](N3C(=O)C(c4ccccc4)NC3(C)C)C(=O)N2[C@H]1C(=O)O (some centres undefined) -16.6%
O=c1ccn([C@@H]2O[C@H](CO)[C@@H](O)[C@H]2O)c(=O)[nH]1 -8.02%
O=c1c(-c2ccccc2)nc2cnc(N3CCOCC3)nc2n1-c1ccccc1 -5.23%
COc1ccccc1CN1CCCC2(CCN(S(=O)(=O)c3ccccc3)CC2)C1 -25.4%
COc1cc2oc(-c3ccccc3)cc(=O)c2cc1OC -14.1%
CO/N=C(/C(=O)N[C@@H]1C(=O)N2C(C(=O)[O-])=C(C[n+]3ccn4ncccc43)CS[C@H]12)c1nsc(N)n1 -10.9% and -25.6%
CN(C)[C@@H]1C(=O)C(C(=O)NCN2CCCC2)=C(O)[C@@]2(O)C(=O)C3=C(O)c4c(O)cccc4[C@@](C)(O)C3C[C@@H]12 (some centres undefined) -15.9% and -25.9%
COc1ccc(NC(=O)N2CCCC3(CCN(S(C)(=O)=O)CC3)C2)cc1 -5.14%
CN(C)C(=O)c1ccc(-c2cncnc2N(C)Cc2ccco2)cc1 3.93%
CCCCC/C=C\C/C=C\CCCCCCCC(=O)NCC(=O)O -6.85%
CS(=O)(=O)Nc1cccc(-c2nc(N3CCNCC3)c3ccccc3n2)c1 2.43%
C=CCSc1nnc(C2CCCN(Cc3ccccc3O)C2)n1C (centres undefined) 0.346%
COc1cccc(C2(CC(=O)N3CCCCC3CO)CC(=O)N(C)C2=O)c1 (centres undefined) -12.4%
